{"source": "PubChem BioAssay AID1814", "about": "(Broad Institute, 2009)", "note": "Among all 300,000 compounds or so, about 22,000 (7.3%) were called active. Inconclusive means that the source gave no clear call. Such entries were picked first, then a sample of the others. Cut-off read from the data, not from the text of the source: active = activity score below about -60%; inconclusive = mostly about -28% to -61%; inactive = positive scores."}
{"assay": "Activators working through SNCA 5'UTR binding (MLPCN) (AID 1814)", "conditions": "alpha-synuclein 5'UTR reporter, activators screen; active compounds read low; tested at 7.5 µM"}
{"smiles": "O=[N+]([O-])c1ccccc1-c1cc(-c2ccccc2)cc(-c2ccccc2)[n+]1Cc1ccccc1Cl", "activity score": "inactive: 63.8%"}
{"smiles": "CC(Cc1ccccc1)NCC(=O)Nc1cc(N(C)C)nc2ccccc12", "note": "(stereo unspecified)", "activity score": "inconclusive: -50%"}
{"smiles": "CCC(=Nc1cc(OC)ccc1OC)c1c(O)[nH]c(=O)[nH]c1=O", "activity score": "inactive: 71.3%"}
{"smiles": "COc1cccc(-c2nc3ccc(N4CCN(C)CC4)cc3[nH]2)c1", "activity score": "inactive: 68.9%"}
{"smiles": "CN(C)C(Cc1ccccc1)C(=O)c1ccc(-c2ccccc2)cc1", "note": "(stereo unspecified)", "activity score": "inconclusive: -31.2%"}
{"smiles": "CC(C)=CCc1c(O)cc2c(c1O)C(=O)CC(c1ccc(O)cc1)O2", "note": "(stereo unspecified)", "activity score": "inconclusive: -53.3%"}
{"smiles": "c1cc2c(cc1[C@H]1OC[C@H]3[C@@H]1CO[C@@H]3c1ccc3c(c1)OCO3)OCO2", "activity score": "inactive: 72.8%"}
{"smiles": "CN(C)CCCNCC(=O)Nc1ccc(Cl)cc1C(=O)c1ccccc1", "activity score": "inconclusive: -49.7%"}
{"smiles": "CCCCCCC[n+]1ccc(-c2cc[n+](CCCCCCC)cc2)cc1", "activity score": "inactive: 91.5%"}
{"smiles": "COc1cc2c(cc1OC)-c1c(OC)c(OC)c(OC)c3ccnc(c13)C2=O", "activity score": "inactive: 104%"}
{"smiles": "O=C1NC(=O)C(CCc2ccncc2)(Cc2cccc(Cl)c2Cl)C(=O)N1c1ccc(Br)cc1", "note": "(stereo unspecified)", "activity score": "inactive: 57.6%"}
{"smiles": "CC(=O)O[C@H]1C(=O)[C@@]2(C)C([C@H](OC(=O)c3ccccc3)[C@]3(O)C[C@H](OC(=O)[C@H](O)[C@@H](NC(=O)Cc4ccccc4)c4ccccc4)C(C)=C1C3(C)C)[C@]1(OC(C)=O)CO[C@@H]1C[C@@H]2O", "note": "(stereo partly specified)", "activity score": "inactive: 93.4%"}
{"smiles": "CCCCCCCSc1cc(OC)c(CCNC)cc1OC", "activity score": "inactive: 121%"}
{"smiles": "C[C@H]1CCC/C=C/C2C[C@H](O)CC2[C@H](O)/C=C/C(=O)O1", "note": "(stereo partly specified)", "activity score": "inactive: 100%"}
{"smiles": "CC1Oc2cc3c(-c4c(O)cc(O)c5c(O)c6c(cc45)OC(C)C(C)C6=O)c(O)cc(O)c3c(O)c2C(=O)C1C", "note": "(stereo unspecified)", "activity score": "inactive: 87%"}
{"smiles": "O=Cc1cn(Cc2cccc([N+](=O)[O-])c2)c2ccccc12", "activity score": "inactive: 94.2%"}
{"smiles": "O=c1[nH]c(=S)[nH]c(O)c1N=Nc1ccc2c(c1)OCO2", "activity score": "active: -73.9%"}
{"smiles": "CN1CCC(N(C)c2nc(-c3ccc([N+](=O)[O-])cc3)nc3ccccc23)CC1", "activity score": "inactive: 75.1%"}
{"smiles": "CC12CN3CCN(C1)CC(C)(C3)C2=NN", "activity score": "inconclusive: -45.5%"}
{"smiles": "CCC(C)C(=O)N[C@@H](c1ccccc1)[C@@H](O)C(=O)O[C@H]1C[C@@]2(O)[C@@H](OC(=O)c3ccccc3)C3[C@](C)(C(=O)[C@H](OC(C)=O)C(=C1C)C2(C)C)[C@@H](O)C[C@H]1OC[C@@]31OC(C)=O", "note": "(stereo partly specified)", "activity score": "inactive: 103%"}
{"smiles": "C/C1=C\\[C@@H](C)C/C=C/[C@H]2[C@@H]3O[C@]3(C)[C@@H](C)[C@H]3[C@H](Cc4c[nH]c5ccccc45)NC(=O)[C@]32C(=O)/C=C/C(=O)[C@@H]1O", "activity score": "inactive: 81.1%"}
{"smiles": "C[C@@H]1O[C@@H](O[C@H]2C[C@@H](O)[C@]3(CO)[C@H]4[C@H](O)C[C@]5(C)[C@@H](C6COC(=O)C6)CC[C@]5(O)[C@@H]4CC[C@]3(O)C2)[C@H](O)[C@H](O)[C@H]1O", "note": "(stereo partly specified)", "activity score": "inactive: 115%"}
{"smiles": "CC(C)[C@H]1C(=O)O[C@H](C(C)C)C(=O)N(C)[C@@H](C(C)C)C(=O)O[C@H](C(C)C)C(=O)N(C)[C@@H](C(C)C)C(=O)O[C@H](C(C)C)C(=O)N1C", "activity score": "inactive: 85.7%"}
{"smiles": "O=C1N(c2ccc(Cl)cc2)C(c2cccnc2)N2CCCN12", "note": "(stereo unspecified)", "activity score": "inconclusive: -53.6%"}
{"smiles": "O=Cc1cn(Cc2ccc([N+](=O)[O-])cc2)c2ccccc12", "activity score": "inactive: 72.5%"}
{"smiles": "Cn1c(O)c(C(=N)COc2cccc(Cl)c2)c(=O)n(C)c1=O", "activity score": "inconclusive: -58.1%"}
{"smiles": "CCOC(=O)c1c(N)n(CCCOC(=O)c2ccco2)c2nc3ccccc3nc12", "activity score": "inactive: 114%"}
{"smiles": "Cc1ccc2nc3c(cc2c1)CC1(C(=O)N(C)C(=O)N(C)C1=O)C1CCCCN31", "note": "(stereo unspecified)", "activity score": "active: -106%"}
{"smiles": "COc1ccc(OC)c(N2C(=O)NC(=O)/C(=C/c3ccc([N+](=O)[O-])s3)C2=O)c1", "activity score": "inconclusive: -57.3%"}
{"smiles": "C[C@H]1C[C@@H](C)C(=O)[C@@H]([C@H](O)CC2CC(=O)NC(=O)C2)C1", "activity score": "inactive: 96.7%"}
{"smiles": "Cc1ccc(N2C(=O)NC(=O)/C(=C\\C=C\\c3ccco3)C2=O)cc1C", "activity score": "inconclusive: -47.4%"}
{"smiles": "CCCCOc1ccc(CN2CCN(CCO)CC2)cc1", "activity score": "inconclusive: -51.8%"}
{"smiles": "CC(=O)O[C@@H]1/C=C/[C@](C)(O)C[C@@H](C)C/C=C/[C@H]2[C@H](O)C(C)=C(C)[C@H]3[C@H](Cc4ccccc4)NC(=O)[C@@]123", "activity score": "inactive: 117%"}
{"smiles": "COc1cc(Cn2c(N)c(C(=O)NCc3ccco3)c3nc4ccccc4nc32)cc(OC)c1OC", "activity score": "inconclusive: -57.9%"}
{"smiles": "CC/C(=N\\N1CCCCC1)c1c(O)[nH]c(=O)[nH]c1=O", "activity score": "inactive: 59.2%"}
{"smiles": "COC(=O)C(O)(c1ccc(NC(=O)c2cccs2)cc1)C(F)(F)F", "note": "(stereo unspecified)", "activity score": "inconclusive: -56.9%"}
{"smiles": "O=C(c1cc2c(s1)-c1ccccc1OC2)N1CCC2(CC1)OCCO2", "activity score": "active: -129%"}
{"smiles": "COC(=O)c1nc(-c2ccc3c(n2)C(=O)C(N)=C(OC)C3=O)c(N)c(-c2ccc(OC)c(OC)c2O)c1C", "activity score": "inactive: 97.2%"}
{"smiles": "Cc1cc([N+](=O)[O-])c2ccccc2[n+]1[O-]", "activity score": "inactive: 127%"}
{"smiles": "CNC(=O)Oc1cccc(-c2cn3cc(Cl)ccc3n2)c1", "activity score": "inactive: 60.8%"}
{"smiles": "O=C(Nc1ccc(OC(=O)N2CCCCC2)cc1)N1CCOCC1", "activity score": "inactive: 88.9%"}
{"smiles": "Cc1cccc(Cn2cc(C=O)c3ccccc32)c1", "activity score": "inactive: 67.6%"}
{"smiles": "Nc1ccc2cc(Br)ccc2c1", "activity score": "inconclusive: -59.4%"}
{"smiles": "COc1ccc(P2(=O)Nc3ccccc3N2)cc1", "activity score": "active: -139%"}
{"smiles": "O=C1NC(=S)N(C2CC2)C(=O)/C1=C/c1ccc2c(c1)CCN2CCCCl", "activity score": "inconclusive: -48.5%"}
{"smiles": "C=C1C(=O)O[C@@H]2C[C@@H](C)[C@@H]3C=CC(=O)[C@@]3(C)[C@@H](O)[C@H]12", "activity score": "inactive: 119%"}
{"smiles": "CC(C)c1ccc(-n2c(O)c(/C=N/N3CCOCC3)c(=O)[nH]c2=S)cc1", "activity score": "inconclusive: -57.4%"}
{"smiles": "COc1ccccc1CN1CCCC(C(=O)c2ccccc2SC)C1", "note": "(stereo unspecified)", "activity score": "inactive: 52.1%"}
{"smiles": "CCc1ccc(-c2nn(Cc3ccccc3)cc2C=O)cc1", "activity score": "active: -140%"}
{"smiles": "CC1(C)C[C@H]2C=C(C=O)[C@]3(C=O)C[C@]3(C)[C@H]2C1", "activity score": "inactive: 117%"}
{"smiles": "CCCC(=O)Nc1cc(C(=O)N2CCC3(CC2)OCCO3)ccc1S(=O)(=O)c1ccc(C)cc1", "activity score": "inactive: 35.4%"}
{"smiles": "Fc1cccc(F)c1-c1nc(-c2ccc(Cl)cc2)no1", "activity score": "inconclusive: -43.1%"}
{"smiles": "Cn1ncnc2c(=O)n(C)c(=O)nc1-2", "activity score": "inactive: 97.7%"}
{"smiles": "C[C@H]1CCC[C@H](O)CCCCCc2cc(O)cc(O)c2C(=O)O1", "activity score": "inconclusive: -57.8%"}
{"smiles": "Cc1cc(=O)[nH]c(CCl)n1", "activity score": "inconclusive: -38.1%"}
{"smiles": "Cc1ccc(-c2cc(-c3ccc(C)cc3)[n+](-c3ccccc3)c(-c3ccc(C)cc3)c2)cc1", "activity score": "inactive: 76%"}
{"smiles": "Cc1nc(Cl)sc1C(=O)Nc1ccc2ccccc2c1", "activity score": "inconclusive: -54.1%"}
{"smiles": "CC1CCC(C(C)C)C(OC(=O)Cn2c(COc3ccccc3)[n+](C)c3ccccc32)C1", "note": "(stereo unspecified)", "activity score": "inactive: 66.5%"}
{"smiles": "N=C1c2ccccc2CN1NC(=O)c1ccc(Cl)cc1", "activity score": "inconclusive: -60%"}
{"smiles": "C=CCN(CC=C)Cc1c[nH]c2ccccc12", "activity score": "inconclusive: -37.8%"}
{"smiles": "O=c1[nH]c(O)c(N=Nc2ccc(SC(F)F)cc2)c(=O)[nH]1", "activity score": "inconclusive: -41.3%"}
{"smiles": "Clc1ccc(OCC#CCN2CCCCCC2)cc1", "activity score": "inconclusive: -52%"}
{"smiles": "COC(=O)C[C@]1(C(=O)OC)CN(C#N)N(c2ccc(Cl)cc2)C12c1ccccc1-c1ccccc12", "activity score": "inactive: 95.8%"}
{"smiles": "C=C(C=O)CC1CC(O)[C@]2(C)OC3CC4OC5C[C@]6(C)O[C@]7(C)CCC8OC9C[C@]%10(C)OC%11C(C)=CC(=O)OC%11CC%10OC9C[C@@H](C)C8OC7CC6O[C@]5(C)CC5OC5C4OC3CC2O1", "note": "(stereo partly specified)", "activity score": "inactive: 114%"}
{"smiles": "O=C(Nc1ccc(Cl)cc1)Nc1nccs1", "activity score": "inconclusive: -47.3%"}
{"smiles": "C[C@@H]1O[C@@H](O[C@H]2C[C@@H](O)[C@]3(CO)[C@H]4[C@H](O)C[C@]5(C)[C@@H](C6=CC(=O)OC6)CC[C@]5(O)[C@@H]4CC[C@]3(O)C2)[C@H](O)[C@H](O)[C@H]1O", "activity score": "inactive: 114%"}
{"smiles": "Cc1ccc(CN2C3CCCC2CC(NC(=O)Nc2cccc(F)c2)C3)cc1", "note": "(stereo unspecified)", "activity score": "active: -98.7%"}
{"smiles": "NC(=O)c1cn(C2OC(CO)C(O)C2O)c2ncnc(N)c12", "note": "(stereo unspecified)", "activity score": "inactive: 106%"}
{"smiles": "O=C1NC(=O)C(=Cc2cccc(OCCOc3ccccc3)c2)C(=O)N1", "activity score": "active: -86.8%"}
{"smiles": "COCCN1Cc2cc(=O)n3c([nH]c4ccccc43)c2C1=N", "activity score": "inconclusive: -59%"}
{"smiles": "COC1CC(OC2CCC3(C)C(CCC4C3CCC3(C)C(C5=CC(=O)OC5)C(OC(C)=O)CC43O)C2)OC(C)C1OC1OC(COC2OC(CO)C(O)C(O)C2O)C(O)C(O)C1O", "note": "(stereo unspecified)", "activity score": "inactive: 115%"}
{"smiles": "CC[n+]1c(/C=C/C=C/c2ccc(N(C)C)cc2)sc2ccccc21", "activity score": "inactive: 59.7%"}
{"smiles": "Cn1c(O)c(/C=C2\\N=c3ccccc3=C2CCNC(=S)NC2CC2)c(=O)n(C)c1=O", "activity score": "inconclusive: -30.9%"}
{"smiles": "Cc1ccc(C[n+]2c(-c3ccc(C)cc3)cc(-c3ccc(C)cc3)cc2-c2ccc(C)cc2)cc1", "activity score": "inactive: 95.2%"}
{"smiles": "CNc1ccc2oc(C[C@H]3O[C@@]4(CC[C@H]3C)O[C@H]([C@H](C)C(=O)c3ccc[nH]3)[C@H](C)C[C@H]4C)nc2c1C(=O)O", "activity score": "inactive: 117%"}
{"smiles": "CC1=CC(=C2C(=O)NC(=S)NC2=O)C=C(C(F)(F)F)N1Cc1ccccc1", "activity score": "inactive: 113%"}
